Measured values taken from PubChem BioAssay AID1030 (National Center for Advancing Translational Sciences (NCATS), 2008).
About 16,000 (7.3%) of roughly 220,000 compounds were called active. The shares of active, inactive and inconclusive entries below differ from those in the screen. Calls come from the whole dose curve; as a rule, active = well fitted inhibition curve with a large enough effect (not every such curve was filed as active); inconclusive = small, poorly fitted or top-dose-only effect, or another doubt; inactive = no such curve, though single readings can be large or run the other way. No potency is given beside an inconclusive call; the fits are too rough.
Potency is the fitted concentration of half-maximal effect; tags give direction and shape of the fitted curve.

The molecules below were run against Aldehyde dehydrogenase 1A1 (Homo sapiens) (UniProt P00352) (assay: qHTS Assay for Inhibitors of Aldehyde Dehydrogenase 1 (ALDH1A1)). Conditions: Purified ALDH1A1, NADH fluorescence, propionaldehyde substrate; series mostly up to 75.3 µM.
UniProt P00352, sequence (P00352 whole entry, looked up): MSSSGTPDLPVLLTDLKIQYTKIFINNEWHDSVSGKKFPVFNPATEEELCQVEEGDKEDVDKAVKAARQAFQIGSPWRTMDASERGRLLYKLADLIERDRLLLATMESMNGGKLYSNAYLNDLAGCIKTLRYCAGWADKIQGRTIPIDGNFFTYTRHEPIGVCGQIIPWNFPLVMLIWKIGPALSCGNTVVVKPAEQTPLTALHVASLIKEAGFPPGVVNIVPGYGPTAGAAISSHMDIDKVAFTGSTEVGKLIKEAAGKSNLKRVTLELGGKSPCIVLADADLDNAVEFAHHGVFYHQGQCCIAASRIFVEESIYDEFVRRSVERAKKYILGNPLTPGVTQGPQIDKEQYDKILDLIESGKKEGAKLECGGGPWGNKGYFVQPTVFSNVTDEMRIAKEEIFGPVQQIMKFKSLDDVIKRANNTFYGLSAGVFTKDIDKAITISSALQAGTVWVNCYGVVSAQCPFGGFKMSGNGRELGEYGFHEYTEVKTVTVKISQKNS
With `Cc1cc(C)nc(-n2nc(C)cc2NC(=O)CNC(C)c2ccccc2)n1` (stereo not drawn) the Potency was inconclusive [inhibitor, single point].
In the case of `COc1ccc(C(=O)NC(=O)COC(=O)c2ccc3ncsc3c2)cc1`, the Potency is reported as inconclusive [inhibitor, single point].
`Cc1ccc(C(=O)c2cc([N+](=O)[O-])ccc2N2CCOCC2)cc1` was tested, and the Potency was inconclusive [inhibitor, single point].
With `CCn1c(SCc2ccccc2Cl)nc2nc3c(cc2c1=O)CCCC3` the Potency was active: 15.8 µM.
For `CCN(CC(=O)Nc1ccc(Cl)c(S(=O)(=O)N(C)C)c1)Cc1nc2ccccc2c(=O)[nH]1`, the Potency was active: 25.1 µM.
With `COc1ccc(C2NC3=C(CCC3)C3(C#N)C4(N=C(N)C23C#N)OCCO4)cc1` (stereo not drawn) the Potency was inconclusive [inhibitor, partial curve].
With `COc1ccccc1/C=N/NC(=O)c1cccc(NC(=O)c2ccccc2Cl)c1` the Potency was active: 20 µM.
For `O=C(CCc1ccccc1)Nc1nc2n(n1)C(c1ccccc1)CC(=O)N2` (stereo not drawn), the Potency was inconclusive [inhibitor, single point].
In the case of `Cc1ccc(O)c(Sc2cc(C)ccc2O)c1`, the Potency is reported as “inactive”.
`C=CCNC(=O)CC(C)C(CCCCC)C(=O)O` (stereo not drawn) was tested, and the Potency was inconclusive [inhibitor, single point].
For `O=c1c(-c2cccs2)nc2cncnc2n1Cc1ccc(F)cc1`, the Potency was inconclusive [inhibitor, partial curve].
In the case of `Nc1c(Cl)cc(Cl)cc1Cl`, the Potency is reported as “inactive”.
With `CCN(CC)S(=O)(=O)c1ccc(S(=O)(=O)Nc2cc3c(cc2C(C)=O)OCO3)cc1` the Potency was active: 3.16 µM.
With `COc1ccccc1N1CCN(C(=O)C2c3ccccc3Oc3ccccc32)CC1` the Potency was inconclusive [inhibitor, single point].
With `COc1cnn(-c2ccc(F)cc2)c(=O)c1Br` the Potency was inconclusive [inhibitor, single point].
`C(=N\Nc1ncnc2nc[nH]c12)/c1cccs1` was tested, and the Potency was inconclusive [inhibitor, single point].
With `CCCCN1CCc2c([nH]c3c(C)cccc23)C1=O` the Potency was inconclusive [inhibitor, partial curve].
For `COc1ccc(NC(=O)NC(C)C2CC3CCC2C3)cc1` (stereo not drawn), the Potency was inconclusive [inhibitor, single point].
For `CCOc1ccc2c(c1)C(C)=CC(C)(C)N2C(=O)Nc1ccccc1F`, the Potency was inconclusive [inhibitor, partial curve].
For `COc1ccc(/C(O)=C2\C(=O)C(=O)N(CC3CCCO3)C2c2cc(OC)ccc2OC)cc1` (stereo not drawn), the Potency was inconclusive [inhibitor, single point].
With `CCCCCCCCCCCCC/C=C/[C@@H](O)[C@H](CO)NC(=O)CCCCCCC` the Potency was “inactive”.
`O=C(/C=C/c1ccccc1)NCCC1=CCCCC1` was tested, and the Potency was “inactive”.
`COC(=O)c1cc2ccsc2n1Cc1nc(-c2cccc(Cl)c2)oc1C` was tested, and the Potency was “inactive”.
For `CC1=NCCN1S(=O)(=O)c1ccccc1[N+](=O)[O-]`, the Potency was “inactive”.
For `COc1ccc2c(=O)c(OC)c(-c3ccccc3)oc2c1`, the Potency was inconclusive [inhibitor, full curve].
`O=[N+]([O-])c1ccc(NC(=S)N2CCN(c3ccc(F)cc3)CC2)cc1` was tested, and the Potency was “inactive”.
With `COc1cccc(CNC(=O)Nc2cccs2)c1` the Potency was inconclusive [inhibitor, single point].
For `COC(=O)c1ccccc1NC(=O)/C=C/C(=O)O`, the Potency was “inactive”.
In the case of `CCCn1c(CCC(=O)Nc2ccccc2Cc2ccccc2)nc2cc(S(=O)(=O)N3CCOCC3)ccc21`, the Potency is reported as inconclusive [inhibitor, single point].
In the case of `CC1CC(C)CN(C(=O)CSc2nnc(-c3ccc(Cl)s3)o2)C1` (stereo not drawn), the Potency is reported as inconclusive [inhibitor, single point].
With `O=C(NCC(c1cccnc1)N1CCN(c2ccccc2)CC1)c1ccc2c(c1)OCO2` (stereo not drawn) the Potency was inconclusive [inhibitor, partial curve, poor fit].
With `O=C(CN1CCN(c2ccccc2F)CC1)c1c[nH]c2ccccc12` the Potency was inconclusive [inhibitor, single point].
For `CCc1ccc(NC(=S)Nc2ccc(S(=O)(=O)Nc3ncccn3)cc2)cc1`, the Potency was inconclusive [inhibitor, single point].
In the case of `c1c2c(cc3sc(N4CCCCC4)nc13)OCCO2`, the Potency is reported as active: 20 µM.
In the case of `Cc1cc(C)nc(N/N=C/C2=C(N3CCOCC3)C(=C\c3ccc(Cl)cc3)/CC2)n1`, the Potency is reported as active: 15.8 µM.
For `O=C(Nc1ccc2c(c1)OCO2)Nc1ccc2c(c1)OCO2`, the Potency was “inactive”.
For `CC(=O)Nc1cccc2c1C(=O)NC2=O`, the Potency was inconclusive [inhibitor, single point].
`COC(=O)c1c(N2C(=O)CC(Sc3ccccc3C(=O)O)C2=O)sc2c1CCCC2` (stereo not drawn) was tested, and the Potency was active: 0.447 µM.
`Cc1ccccc1-c1nc(CN2CCCC2c2ccc(F)cc2)c(C)o1` (stereo not drawn) was tested, and the Potency was “inactive”.
With `O=C(CCC1CCCCC1)Nc1ccc(S(=O)(=O)Nc2nccs2)cc1` the Potency was inconclusive [inhibitor, partial curve].
`COc1ccc(OC)c(N2Cc3ccccc3C2)c1` was tested, and the Potency was “inactive”.
In the case of `CC(=O)NCCC1CCN(c2nc3nonc3nc2N(C)Cc2ccccc2)CC1`, the Potency is reported as “inactive”.
For `O=C(CCc1nnc(CCCCc2ccccc2)o1)NCCn1cccn1`, the Potency was “inactive”.
`CC(C)N(C#N)c1nc(N2CCOCC2)nc(N2CCOCC2)n1` was tested, and the Potency was inconclusive [inhibitor, partial curve].
In the case of `O=C(CSc1nccn1-c1ccc(Cl)cc1)N1CCCc2ccccc21`, the Potency is reported as inconclusive [inhibitor, partial curve].
`CCOC(=O)c1sc2nc(CC(C)C)c3c(c2c1N)CCC3` was tested, and the Potency was inconclusive [inhibitor, partial curve].
In the case of `NS(=O)(=O)c1ccc2c(c1)oc(=O)c1cc(S(N)(=O)=O)ccc12`, the Potency is reported as “inactive”.
With `CCOc1ccc2c(=O)c(-c3ccc4c(c3)OCCCO4)c(C)oc2c1` the Potency was inconclusive [inhibitor, single point].
